Potency and max response data for 14 compounds are collected here from PubChem BioAssay (NCATS).

Results filed as inconclusive are left out. Unless noted, calls follow the shape of the full dose curve. Some entries of the source have several records that differ or are many. The list is limited to them. An entry can have further records. Values given together are repeats (runs, samples, wells, individuals or studies). The source holds several records for some structures; these can differ, active in one and inactive in another. A tag in brackets gives the origin of a value. Letters count within one entry.

The nature of test [1]: qHTS for Inhibitors of the Functional Ribonucleoprotein Complex (vRNP) of Lassa (LASV) Arenavirus: LASV Primary Screen - GLuc reporter signal (AID 1347082; calls by dose curve; tested in HEK293 reporter line; also: nearly all actives have a fitted effect of over 60% in size; also: potency is read from the fitted curve at half-maximal effect). Particulars: LASV minigenome vRNP, Gaussia luciferase reporter; series mostly up to 57.5 µM.
A short description of test [2]: qHTS for Inhibitors of the Functional Ribonucleoprotein Complex (vRNP) of Lassa (LASV) Arenavirus: Viability assay - alamar blue signal for LASV Primary Screen (AID 1347083; calls by dose curve; tested in HEK293 reporter line; also: nearly all actives have a fitted effect of over 80% in size; also: potency is read from the fitted curve at half-maximal effect). Particulars: cell viability, alamar blue fluorescence (LASV minigenome counter-screen); series mostly up to 57.5 µM. In general terms: qHTS replaces the single test concentration by a dilution series.

The nature of test [3]: qHTS for Inhibitors of the Functional Ribonucleoprotein Complex (vRNP) of Lymphocytic Choriomeningitis Arenaviruses (LCMV): Viability assay - alamar blue signal for LCMV Primary Screen (AID 1347085; calls by dose curve; tested in HEK293 reporter line; also: nearly all actives have a fitted effect of over 80% in size; also: potency is read from the fitted curve at half-maximal effect). Conditions: alamar blue viability counter-screen, LCMV vRNP screen cells; series mostly up to 57.5 µM.
Test [4] deals with Nucleoprotein (Lymphocytic choriomeningitis virus (strain Armstrong)) (UniProt P09992). Description: qHTS for Inhibitors of the Functional Ribonucleoprotein Complex (vRNP) of Lymphocytic Choriomeningitis Arenaviruses (LCMV): LCMV Primary Screen - GLuc reporter signal (AID 1347086). Also: nearly all actives have a fitted effect of over 70% in size. Also: potency is read from the fitted curve at half-maximal effect. Conditions: LCMV minigenome vRNP cell assay, Gaussia luciferase reporter; series mostly up to 57.5 µM.

Test [5] relates to Zika virus NS2B-NS3 protease (linked construct). As to the kind of experiment: Primary screen NINDS Rhodamine qHTS for Zika virus inhibitors (AID 1347160; active = well fitted curve in the direction sought with a large enough effect; an effect the other way counts as inactive or inconclusive; also: nearly all actives have a fitted effect of over 55% in size; also: potency is read from the fitted curve at half-maximal effect). Conditions: purified NS2B-NS3 protease, Rhodamine110 substrate fluorescence; series mostly up to 112 µM. A digest of the protocol:
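In 10 mM Tris-HCl pH 8.0 containing 0.01% Tween 20, linked NS2B-NS3 protease (25 nM final) is exposed to test compounds for 15 min. Cleavage of 1.5 microM Rhodamine110 substrate is tracked by fluorescence over 15 min.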

A short description of test [6]: Cell Viability qHTS for small molecule stabilizers of the endoplasmic reticulum resident proteome (AID 1508629; active = well fitted curve in the direction sought with a large enough effect; an effect the other way counts as inactive or inconclusive;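 also: human SH-SY5Y neuroblastoma cells carrying the GLuc-SERCaMP reporter; compound exposure about 46 h in total before the viability read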). Conditions: cell viability counter-screen, 100 nM thapsigargin for final 4 h.
% is scaled to controls: 0 for no effect and ±100 for the full control effect.

UniProt P09992, sequence (P09992 whole entry, looked up): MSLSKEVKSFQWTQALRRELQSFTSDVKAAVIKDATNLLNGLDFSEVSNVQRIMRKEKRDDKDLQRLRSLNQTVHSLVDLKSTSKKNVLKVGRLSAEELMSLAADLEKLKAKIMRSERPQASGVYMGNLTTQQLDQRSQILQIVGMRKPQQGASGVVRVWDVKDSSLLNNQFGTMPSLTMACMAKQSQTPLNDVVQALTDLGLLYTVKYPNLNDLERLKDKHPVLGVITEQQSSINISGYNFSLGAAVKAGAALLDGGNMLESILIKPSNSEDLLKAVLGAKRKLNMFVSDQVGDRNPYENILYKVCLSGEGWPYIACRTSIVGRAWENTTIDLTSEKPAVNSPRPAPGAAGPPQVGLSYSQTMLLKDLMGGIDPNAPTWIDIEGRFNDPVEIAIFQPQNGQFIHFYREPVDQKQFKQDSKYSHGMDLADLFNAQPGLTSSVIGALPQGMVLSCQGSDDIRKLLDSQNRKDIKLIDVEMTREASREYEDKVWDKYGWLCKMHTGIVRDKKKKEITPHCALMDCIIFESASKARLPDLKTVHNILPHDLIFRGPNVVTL

As for `O=C1C(c2c(O)[nH]c3ccccc23)=Nc2ccccc21`, the Potency result in test [1] is “inactive [sample A] and active: 3.43 µM [sample B]”; in test [2], “inactive [sample A] and active: 2.17 µM [sample B]”; in test [3] it was “inactive [sample A] and active: 611 nM [sample B]”; in test [4] it was “inactive [sample A] and active: 769 nM [sample B]”.
Turning to `O=c1ccc2ccc(O)c(O)c2o1`, the Potency result in test [1] is “inactive [sample A] and active: 17.2 µM [sample B] and inactive [sample C]”; in test [4], “inactive [sample A] and active: 15.3 µM [sample B] and inactive [sample C]”.
`O=c1c(-c2ccc(O)cc2)coc2cc(O)ccc12`: the Potency result in test [2] was “inactive [sample A] and active: 19.3 µM [sample B] and inactive [sample C]”.
Still for that read-out and setting: the value for `Cc1ccc(S(=O)(=O)N[C@@H](Cc2ccccc2)C(=O)CCl)cc1` was “inactive [sample A] and active: 24.3 µM [sample B]”.
On to `O=C1c2ccccc2-c2n[nH]c3cccc1c23`, for which, in test [3], the Potency entry is “inactive [sample A] and active: 24.3 µM [sample B]”.
With `O=C1NC(=O)C(c2ccccc2[N+](=O)[O-])=C1Nc1ccc(O)c(Cl)c1`, the Potency result in test [2] is “inactive [sample A] and active: 2.73 µM [sample B]”; in test [3], “inactive [sample A] and active: 122 nM [sample B]”.
On to `O=C(CCc1ccc(O)cc1)c1c(O)cc(O)cc1O`, for which the Potency entry was “inactive [sample A] and active: 5.44 µM [sample B] and inactive [sample C]” in test [1]; “inactive [sample A] and active: 2.73 µM [sample B] and inactive [sample C]” in test [2]; “inactive [sample A] and active: 3.43 µM [sample B] and inactive [sample C]” in test [3]; “inactive [sample A] and active: 3.06 µM [sample B] and inactive [sample C]” in test [4].
`COc1ccc([C@@H]2CC(=O)c3c(O)cc(O[C@@H]4O[C@H](CO[C@@H]5O[C@@H](C)[C@H](O)[C@@H](O)[C@@H]5O)[C@@H](O)[C@H](O)[C@@H]4O)cc3O2)cc1O`: the Potency entry in test [3] is “active: 13.7 µM [sample A] and inactive [sample B]”.
Consider `CN1C(=O)[C@]23CC4C(C)(C)[C@@]5(C[C@@]41CN2CC[C@@]3(C)O)C(=O)Nc1c5ccc2c1OC=CC(C)(C)O2` (stereo partly specified), for which, in test [5], the Potency entry was “active: 12.6 µM [sample A] and inactive [sample B]”.
With `CC(=O)O[C@H]1C(=O)[C@@]2(C)C([C@H](OC(=O)c3ccccc3)[C@]3(O)C[C@H](OC(=O)[C@H](O)[C@@H](NC(=O)c4ccccc4)c4ccccc4)C(C)=C1C3(C)C)[C@]1(OC(C)=O)CO[C@@H]1C[C@@H]2O` (stereo partly specified), the Potency entry is “inactive [sample A] and active: 7.7 nM [sample B]” in test [2]; “inactive [sample A] and active: 6.9 nM [sample B]” in test [3].
Turning to `CN(C)CCCC1(c2ccc(F)cc2)OCc2cc(C#N)ccc21` (stereo unspecified), the Potency entry in test [4] was “inactive [sample A] and active: 24.3 µM [sample B]”.
Consider `Oc1ccc2ccccc2c1SSc1c(O)ccc2ccccc12`, for which the Potency result in test [2] was “inactive [sample A] and active: 24.3 µM [sample B]”; in test [3], “inactive [sample A] and active: 12.2 µM [sample B]”; in test [4], “inactive [sample A] and active: 24.3 µM [sample B]”.
As for `O=C1c2c(O)cc(O)cc2OC(c2ccc(O)c(O)c2)C1O` (stereo unspecified), the Potency entry is “inactive [sample A] and active: 17.2 µM [sample B]” in test [3]; “inactive [sample A] and active: 24.3 µM [sample B]” in test [4].
Consider `CC(C)[C@]1(O)[C@@H](OC(=O)c2ccc[nH]2)[C@@]2(O)[C@@]3(C)C[C@]4(O)O[C@@]5([C@H](O)[C@@H](C)CC[C@]35O)[C@@]2(O)C41C`, for which the max response entry in test [6] is “inactive: -21.8, 19.4, 15.8, 15.9% [separate samples]”.
